Our source for the IC50 values is ChEMBL document CHEMBL5050857, “Mettl3 modulators” (2021).

Experiment [1] concerns MOLM-13. The experiment in a line: Antiproliferative activity against human MOLM-13 cells after 96 hrs by Cell Titer-Glo assay. Format: functional, cell-based. Conditions: MOLM-13, 96 h. Background: ATP-based viability assays read luminescence as a measure of living cells.
The test system of experiment [2] is MOLM-13. Briefly: Antiproliferative activity against human MOLM-13 cells after 48 hrs by Cell Titer-Glo assay. Format: functional, cell-based. Conditions: MOLM-13, 48 h.
Experiment [3] concerns the target N6-adenosine-methyltransferase catalytic subunit (Homo sapiens, UniProt Q86U44). The experiment in a line: Inhibition of METTL3 (unknown origin) using UCUGGACUAAA-biotin and 3H-SAM as substrates preincubated for 5 mins followed by substrate addition incubated for 30 mins by TopCount scintillation counting method.
Sequence of UniProt Q86U44 (Q86U44 whole entry): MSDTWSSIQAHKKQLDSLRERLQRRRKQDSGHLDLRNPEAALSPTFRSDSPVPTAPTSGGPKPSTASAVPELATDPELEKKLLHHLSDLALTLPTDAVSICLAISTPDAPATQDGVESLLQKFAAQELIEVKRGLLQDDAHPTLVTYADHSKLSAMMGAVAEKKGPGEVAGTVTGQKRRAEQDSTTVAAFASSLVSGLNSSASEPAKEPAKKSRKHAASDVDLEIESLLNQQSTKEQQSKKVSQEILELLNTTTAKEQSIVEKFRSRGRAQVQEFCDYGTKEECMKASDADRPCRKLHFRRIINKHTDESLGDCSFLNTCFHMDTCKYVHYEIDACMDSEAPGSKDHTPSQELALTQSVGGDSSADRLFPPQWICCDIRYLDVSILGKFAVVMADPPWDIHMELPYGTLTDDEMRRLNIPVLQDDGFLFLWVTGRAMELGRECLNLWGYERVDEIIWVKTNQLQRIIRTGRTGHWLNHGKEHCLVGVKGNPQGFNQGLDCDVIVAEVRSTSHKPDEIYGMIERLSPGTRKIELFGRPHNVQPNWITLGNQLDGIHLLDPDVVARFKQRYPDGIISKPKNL

By IC50 is commonly meant the point on the concentration scale where inhibition reaches its midpoint. In experiment [1], `COCCN(C)C(=O)c1cn([C@@H]2O[C@H](COc3ccc4ccc(N5CCC5)nc4c3)[C@@H](O)[C@@H]2F)c2ncnc(N)c12` returned a half-maximal inhibitory concentration (IC50) of at least 10000 nM.

In the case of `CNc1ccc2ccc(OC[C@H]3O[C@@H](n4cc(-c5ccn(C6COC6)n5)c5c(N)ncnc54)[C@@H](F)[C@@H]3O)cc2n1`, the figures for the IC50 in experiment [2] and in experiment [3] were 1000 nM and below 10 nM, respectively.

On to `Nc1ncnc2c1c(C1CCCC1)cn2[C@@H]1O[C@H](COc2ccc3ccc(N4CCC4)nc3c2)[C@@H](O)[C@@H]1F`, for which the IC50 in experiment [3] was below 10 nM; in experiment [1], 1000 nM.

As for `Nc1ncnc2c1c(-c1ncco1)cn2[C@@H]1O[C@H](COc2ccc3ccc(N4CCC4)nc3c2)[C@@H](O)[C@@H]1F`, the IC50 in experiment [3] is below 10 nM; in experiment [1], below 1000 nM.

For the compound `CCn1ccc(-c2cn([C@@H]3O[C@H](COc4ccc5ccc(NC)nc5c4)[C@@H](O)[C@@H]3F)c3ncnc(N)c23)n1`, the IC50 in experiment [3] was below 10 nM; in experiment [1] it was below 1000 nM.

For the compound `CNc1ccc2ccc(OC[C@H]3O[C@@H](n4cc(-c5ccc(C)cn5)c5c(N)ncnc54)[C@@H](F)[C@@H]3O)cc2n1`, the IC50 in experiment [2] was below 1000 nM; in experiment [3], below 10 nM.

In the case of `Nc1ncnc2c1c(-n1cccn1)cn2[C@@H]1O[C@H](COc2ccc3ccc(N4CCC4)nc3c2)[C@@H](O)[C@@H]1F`, the concentration for half-maximal inhibition (IC50) in experiment [2] and in experiment [1] was below 1000 nM throughout.

Turning to `Nc1ncnc2c1c([C@@H]1CCCO1)cn2[C@@H]1O[C@H](COc2ccc3ccc(N4CCC4)nc3c2)[C@@H](O)[C@@H]1F`, the 50% inhibitory concentration (IC50) is 1000 nM in experiment [2] and below 1000 nM in experiment [1].

For the compound `Nc1ncnc2c1c(CO)cn2[C@@H]1O[C@H](COc2ccc3ccc(N4CCC4)nc3c2)[C@@H](O)[C@@H]1F`, the 50% inhibitory concentration (IC50) in experiment [2] was 1000 nM; in experiment [3] it was below 10 nM; in experiment [1], 1000 nM.

Take `CNc1ccc2ccc(OC[C@H]3O[C@@H](n4cc(F)c5c(N)ncnc54)[C@@H](F)[C@@H]3O)cc2n1`: the figures for the half-maximal inhibitory concentration (IC50) in experiment [2] and in experiment [3] were 1000 nM and below 10 nM, respectively.

In experiment [1], `Nc1ncnc2c1ccn2[C@@H]1C[C@H](CCc2ccc3nccnc3c2)[C@@H](O)[C@H]1O` had a concentration for half-maximal inhibition (IC50) below 1000 nM.

On to `CNc1ccc2ccc(OC[C@H]3O[C@@H](n4cc(-c5cccc(C)n5)c5c(N)ncnc54)[C@@H](F)[C@@H]3O)cc2n1`, for which the IC50 in experiment [2] was 1000 nM; in experiment [3], below 10 nM.

With `CCc1cc(N(C)C)c2ccc(OC[C@H]3O[C@@H](n4cc(-c5ccn(C)n5)c5c(N)ncnc54)[C@@H](F)[C@@H]3O)cc2n1`, the half-maximal inhibitory concentration (IC50) in experiment [2] is 1000 nM; in experiment [3] it was below 10 nM; in experiment [1] it was below 1000 nM.

With `CCc1cc(N(C)CC2CC2)c2ccc(OC[C@H]3O[C@@H](n4cc(-c5ccn(C)n5)c5c(N)ncnc54)C[C@@H]3O)cc2n1`, the IC50 was 1000 nM in experiment [2], below 10 nM in experiment [3] and 1000 nM in experiment [1].

As for `Cn1ccc(-c2cn([C@@H]3O[C@H](COc4ccc5ccc(C6CCC6)nc5c4)[C@@H](O)[C@@H]3F)c3ncnc(N)c23)n1`, the concentration for half-maximal inhibition (IC50) in experiment [2] was 1000 nM; in experiment [3], below 10 nM; in experiment [1] it was 1000 nM.

On to `Cn1ccc(-c2cn([C@@H]3O[C@H](COc4ccc5ccc(N6CC(N)C6)nc5c4)[C@@H](O)[C@@H]3F)c3ncnc(N)c23)n1`, for which the IC50 in experiment [2] was below 1000 nM; in experiment [3], below 10 nM; in experiment [1], below 1000 nM.

Consider `Cn1ccc(-c2cn([C@H]3C[C@H](O)[C@@H](COc4ccc5ccc(N6CCC6)nc5c4)O3)c3ncnc(N)c23)n1`, for which the IC50 was 1000 nM in experiment [2], below 10 nM in experiment [3] and below 1000 nM in experiment [1].

`CN(CCO)c1ccc2ccc(OC[C@H]3O[C@@H](n4cc(-c5ccn(C)n5)c5c(N)ncnc54)[C@@H](F)[C@@H]3O)cc2n1`: the 50% inhibitory concentration (IC50) was 1000 nM in experiment [2], below 10 nM in experiment [3] and below 1000 nM in experiment [1].

Consider `CNc1ccc2ccc(OC[C@H]3O[C@@H](n4cc(-c5ccc(C)o5)c5c(N)ncnc54)[C@@H](F)[C@@H]3O)cc2n1`, for which the IC50 in experiment [2] and in experiment [1] was below 1000 nM in each case.

Regarding `CNc1ccc2ccc(OC[C@H]3O[C@@H](n4cc(CC5CC5)c5c(N)ncnc54)[C@H](O)[C@@H]3O)cc2n1`, the IC50 in experiment [2] was 1000 nM; in experiment [3], below 10 nM.

As to `Nc1ncnc2c1c(-n1ccc(C(F)(F)F)n1)cn2[C@H]1C[C@H](O)[C@@H](COc2ccc3ccc(N4CCC4)nc3c2)O1`, the IC50 is 1000 nM in experiment [2], below 10 nM in experiment [3] and 1000 nM in experiment [1].

Take `CNc1ccc2ccc(OC[C@H]3O[C@@H](n4cc(-c5ccn(C6CCC6)n5)c5c(N)ncnc54)[C@H](O)[C@@H]3O)cc2n1`: the IC50 in experiment [2] was 1000 nM; in experiment [3] it was below 10 nM.

For `CCc1cc(NCCOC)c2ncc(OC[C@H]3O[C@@H](n4cc(-c5ccn(C)n5)c5c(N)ncnc54)[C@H](O)[C@@H]3O)cc2n1`, the results for the concentration for half-maximal inhibition (IC50) in experiment [2], in experiment [3] and in experiment [1] were at least 10000 nM, below 10 nM and 1000 nM, respectively.

With `Cn1ccc(-c2cn([C@@H]3O[C@H](CCc4ccc5cnc(N6CCC6)nc5c4)[C@@H](O)[C@@H]3F)c3ncnc(N)c23)n1`, the IC50 in experiment [3] was below 10 nM; in experiment [1], 1000 nM.

In the case of `CNc1ccc2sc(CC[C@H]3O[C@@H](n4cc(-c5ccn(C)n5)c5c(N)ncnc54)[C@@H](F)[C@@H]3O)cc2n1`, the half-inhibitory concentration (IC50) is below 10 nM in experiment [3] and below 1000 nM in experiment [1].

Turning to `CNc1ccc2ccc(OC[C@H]3O[C@@H](n4cc(C(O)C5CC5)c5c(N)ncnc54)[C@H](O)[C@@H]3O)cc2n1` (stereo partly drawn), the IC50 is at least 10000 nM in experiment [2] and below 10 nM in experiment [3].

`Cc1coc(-c2cn([C@@H]3O[C@H](COc4ccc5ccc(N6CCC6)nc5c4)[C@@H](O)[C@@H]3F)c3ncnc(N)c23)n1`: the IC50 in experiment [2] was 1000 nM; in experiment [1], below 1000 nM.

In the case of `Nc1ncnc2c1c(-n1cccn1)cn2[C@H]1C[C@H](O)[C@@H](COc2ccc3ccc(N4CCC4)nc3c2)O1`, the concentration for half-maximal inhibition (IC50) was 1000 nM in experiment [2], below 10 nM in experiment [3] and 1000 nM in experiment [1].

Consider `CNc1ccc2ccc(OC[C@H]3O[C@@H](n4cc([C@@H]5CCCO5)c5c(N)ncnc54)[C@@H](F)[C@@H]3O)cc2n1`, for which the IC50 in experiment [2] is 1000 nM; in experiment [3] it was below 10 nM; in experiment [1] it was below 1000 nM.

Take `Nc1ccc2cc(CC[C@H]3C[C@@H](n4ccc5c(N)ncnc54)[C@H](O)[C@@H]3O)ccc2n1`: the values for the half-maximal inhibitory concentration (IC50) in experiment [3] and in experiment [1] were at most 1000 nM and 1000 nM, respectively.

Consider `CNc1ccc2ccc(OC[C@H]3O[C@@H](n4cc(-c5ccn(C(C)C)n5)c5c(N)ncnc54)[C@@H](F)[C@@H]3O)cc2n1`, for which the IC50 in experiment [3] was below 10 nM; in experiment [1], below 1000 nM.

As to `Nc1ncnc2c1ccn2[C@H]1C[C@H](O)[C@@H](COc2ccc3ccc(NC4CC4)nc3c2)O1`, the IC50 in experiment [2] and in experiment [1] was at least 10000 nM throughout.

Regarding `CNc1ccc2cc(CC[C@H]3C[C@@H](n4ccc5c(N)ncnc54)[C@H](O)[C@@H]3O)ccc2n1`, the IC50 in experiment [3] is at most 1000 nM; in experiment [1], 1000 nM.

For the compound `CCNc1ccc2ccc(OC[C@H]3O[C@@H](n4cc(-c5ccn(C)n5)c5c(N)ncnc54)[C@@H](F)[C@@H]3O)cc2n1`, the IC50 was below 10 nM in experiment [3] and below 1000 nM in experiment [1].

`CNc1ccc2ccc(OC[C@H]3O[C@@H](n4cnc5c(N)ncnc54)[C@H](O)[C@@H]3O)cc2n1` gave an IC50 in experiment [3] of at most 100 nM.

`Nc1ncnc2c1ccn2[C@@H]1C[C@H](CCc2ccc3[nH]ncc3c2)[C@@H](O)[C@H]1O`: the IC50 in experiment [3] was at least 1000 nM.

On to `Nc1ncnc2c1ccn2[C@@H]1C[C@H](CCc2ccc3[nH]cnc3c2)[C@@H](O)[C@H]1O`, for which, in experiment [3], the IC50 is at least 1000 nM.

With `Cn1ccc(-c2cn([C@@H]3C[C@H](CCc4ccc5ccc(N6CCC6)nc5c4)[C@@H](O)[C@@H]3F)c3ncnc(N)c23)n1`, the figures for the IC50 in experiment [3] and in experiment [1] were below 10 nM and below 1000 nM, respectively.

In experiment [3], `Nc1ccc2ccc(CC[C@H]3C[C@@H](n4cc(Br)c5c(N)ncnc54)[C@H](O)[C@@H]3O)cc2n1` registered an IC50 of at most 100 nM.

As for `Nc1ncnc2c1ccn2[C@@H]1O[C@H](COc2ccc3ccc(N4CCOCC4)nc3c2)[C@@H](O)[C@H]1O`, the IC50 in experiment [3] was at most 100 nM.

Compound `CCCC(=O)c1cn([C@@H]2O[C@H](COc3ccc4ccc(NC)nc4c3)[C@@H](O)[C@@H]2F)c2ncnc(N)c12` returned a concentration for half-maximal inhibition (IC50) in experiment [3] of at most 100 nM.

Consider `C=CCc1cn([C@@H]2O[C@H](COc3ccc4ccc(NC)nc4c3)[C@@H](O)[C@H]2O)c2ncnc(N)c12`, for which the IC50 in experiment [2] is below 1000 nM; in experiment [3], below 10 nM.

As to `Nc1ccc2ccc(CC[C@H]3C[C@@H](n4cc([C@@H]5CCOC5)c5c(N)ncnc54)[C@H](O)[C@@H]3O)cc2n1`, the IC50 in experiment [3] was at most 1000 nM.

Regarding `Nc1ncnc2c1ccn2[C@@H]1C[C@H](CCc2cccc(NC(=O)C3CC3)c2)[C@@H](O)[C@H]1O`, in experiment [3], the IC50 is at least 1000 nM.

Compound `Nc1ncnc2c1ccn2[C@@H]1C[C@H](CCc2ccc3cc(C#Cc4ccccc4)cnc3c2)[C@@H](O)[C@H]1O` registered an IC50 in experiment [3] of at least 1000 nM.

On to `Nc1ccc2cc(OC[C@H]3C[C@@H](n4ccc5c(NCCc6ccccc6)ncnc54)[C@H](O)[C@@H]3O)ccc2n1`, for which the IC50 in experiment [3] was at least 1000 nM.

With `CNc1nc2cc(OC[C@H]3O[C@@H](n4cc(-n5ccc(C)n5)c5c(N)ncnc54)C[C@@H]3O)ccc2cc1F`, in experiment [3], the half-inhibitory concentration (IC50) was at least 1000 nM.

`Cc1cn([C@@H]2O[C@H](COc3ccc4ccc(NCC5CC5)nc4c3)[C@@H](O)[C@H]2O)c2ncnc(N)c12` showed an IC50 in experiment [3] of at least 1000 nM.

In experiment [3], `CNc1ccc2ccc(CC[C@H]3C[C@@H](n4cc(C5CCOCC5)c5c(N)ncnc54)[C@H](O)[C@@H]3O)cc2n1` registered an IC50 of at most 100 nM.

`Nc1ncnc2c1c(-n1cccn1)cn2[C@@H]1C[C@H](CCc2cc3nc(N4CCC4)ccc3cc2F)[C@@H](O)C1`: the 50% inhibitory concentration (IC50) in experiment [3] was below 10 nM.

Take `Cc1cc2c(NCCc3ccccc3)ncnc2n1[C@@H]1C[C@H](CCc2ccc3ccc(N)nc3c2)[C@@H](O)[C@H]1O`: the IC50 in experiment [3] was at least 1000 nM.

In experiment [3], `Nc1ncnc2c1ccn2[C@@H]1C[C@H](CCc2cnc3cccnc3c2)[C@@H](O)[C@H]1O` showed an IC50 of at least 1000 nM.

In experiment [3], `Nc1ccc2cc(CC[C@H]3C[C@@H](n4ccc5c(NCCc6ccccc6)ncnc54)[C@H](O)[C@@H]3O)ccc2n1` yielded an IC50 of at least 1000 nM.
